According to the supplement of paper PMC4967469:
Lines with a small IC50 respond at low doses; where the fit passes the top or lowest dose, that dose stands as a limit. The AUC spans the tested range (256-fold, ending at the top dose) of the same fit; it is 1 without any effect and falls as sensitivity rises. The top dose, if marked as inferred, was calculated from the reported fits.

Key:
FR-180204 = compound: Nc1[nH]nc2nnc(-c3c(-c4ccccc4)nn4ccccc34)cc12 [FR-180204]; test: Viability of human cancer cell lines after 72 h of drug (GDSC screen); settings: top dose 20 µM; top dose inferred
Description: (§1)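 Human cancer cell lines in 384-well plates, medium with 10% serum, drug for 72 h over a 256-fold dose range (nine 2-fold or five 4-fold steps up to the top dose). Adherent lines were fixed and stained with the nucleic acid dye Syto60, suspension lines read with resazurin; signal relative to control wells, capped at 0 and 100%. One two-parameter sigmoid per drug and line, fitted in a mixed model over all curves with the slope shared within a line.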

FK866 = compound: O=C(/C=C/c1cccnc1)NCCCCC1CCN(C(=O)c2ccccc2)CC1 [FK866]; test: as above; settings: top dose 1 µM; top dose inferred
Description: as §1

Cell Line | AUC (FR-180204) | IC50 (FR-180204) [nM] | AUC (FK866) | IC50 (FK866) [nM]
TT (thyroid, adherent) | 0.983 | > 20000 | 0.925 | > 1000
TUR (B-cell lymphoma, suspension) | 0.978 | > 20000 | 0.023 | < 3.91
TYK-nu (ovary, adherent) | 0.985 | > 20000 | 0.373 | 27.1
U031 (kidney, adherent) | 0.967 | > 20000 | 0.335 | 21.3
U251 (glioma, adherent) | 0.988 | > 20000 | 0.119 | 4.07
U-2-OS (osteosarcoma, adherent) | 0.985 | > 20000 | 0.195 | 7.02
U-87-MG (glioma, adherent) | 0.976 | > 20000 | 0.349 | 22.1
U-118-MG (glioma, adherent) | 0.964 | > 20000 | 0.565 | 96.5
U-698-M (B-cell leukaemia, suspension) | 0.954 | > 20000 | 0.042 | < 3.91
UACC-62 (melanoma, adherent) | 0.985 | > 20000 | 0.875 | 960
UACC-257 (melanoma, adherent) | 0.969 | > 20000 | 0.844 | 996
UM-UC-3 (bladder, adherent) | 0.965 | > 20000 | 0.126 | 4.49
UMC-11 (lung carcinoid, adherent) | 0.984 | > 20000 | 0.843 | 602
UWB1.289 (ovary, adherent) | 0.924 | > 20000 | 0.815 | 954
VA-ES-BJ (soft tissue, adherent) | 0.985 | > 20000 | 0.964 | > 1000
VAL (B-cell lymphoma, suspension) | 0.907 | > 20000 | 0.062 | < 3.91
VCaP (prostate, adherent) | 0.94 | > 20000 | 0.967 | > 1000
VM-CUB-1 (bladder, adherent) | 0.988 | > 20000 | 0.043 | < 3.91

Cell Line | AUC (FR-180204) | IC50 (FR-180204) [nM] | AUC (FK866) | IC50 (FK866) [nM]
VMRC-MELG (melanoma, adherent) | 0.944 | > 20000 | 0.988 | > 1000
VMRC-RCZ (kidney, adherent) | 0.974 | > 20000 | 0.602 | 125
WIL2-NS (lymphoid neoplasm, suspension) | 0.992 | > 20000 | 0.019 | < 3.91
WM35 (melanoma, adherent) | 0.85 | 15300 | 0.98 | > 1000
WM278 (melanoma, adherent) | 0.954 | > 20000 | 0.403 | 32.7
WM793B (melanoma, adherent) | 0.947 | > 20000 | 0.517 | 69.9
WM1552C (melanoma, adherent) | 0.979 | > 20000 | 0.986 | > 1000
WM-115 (melanoma, adherent) | 0.961 | > 20000 | 0.978 | > 1000
WSU-DLCL2 (B-cell lymphoma, suspension) | 0.993 | > 20000 | 0.991 | > 1000
WSU-NHL (lymphoid neoplasm, suspension) | 0.983 | > 20000 | 0.023 | < 3.91
YAPC (pancreas, adherent) | 0.975 | > 20000 | 0.69 | 245
YH-13 (glioma, adherent) | 0.974 | > 20000 | 0.969 | > 1000
YKG-1 (glioma, adherent) | 0.978 | > 20000 | 0.444 | 43.7
YT (lymphoid neoplasm, suspension) | 0.988 | > 20000 | 0.176 | 8.15
huH-1 (liver, adherent) | 0.983 | > 20000 | 0.951 | > 1000
no-10 (glioma, adherent) | 0.983 | > 20000 | 0.843 | 961
no-11 (glioma, adherent) | 0.981 | > 20000 | 0.93 | > 1000
